Assay results reported in the supplement of paper PMC3724861.
The list shows a part of the results.

Each sequence was assayed on T1, Caupolican (Caup) homeodomain DNA-binding domain (assay: PBM E-score (8-mer, recovered from the published 9-mer minima) (E-score (dimensionless, -0.5 to 0.5)); Drosophila protein; higher = stronger relative binding preference, active = 0.31 or more).
T1 sequence: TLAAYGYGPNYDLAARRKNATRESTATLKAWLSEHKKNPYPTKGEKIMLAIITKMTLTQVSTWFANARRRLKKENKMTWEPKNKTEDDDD
Protocol: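 Protein binding microarray (PBM): in vitro transcribed/translated Caupolican (Caup) homeodomain DNA-binding domain (residues 214-303) applied at 100 nM to a universal 8-mer PBM array (Agilent AMADID 015681). The 8-mer enrichment score (E-score, range -0.5 to 0.5) was computed, and each 9-mer score is the minimum E-score of its two constituent 8-mers. The E-score is the same for a 9-mer and its reverse complement; 0.31 is the stated binding threshold.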

PBM E-score, ≥ 0.284:
AACACGCA

PBM E-score, ≥ 0.0242:
ATCGCAGG

PBM E-score, ≥ 0.0303:
ATGGCTTA

PBM E-score, active:
GCTTGTTA 0.315

PBM E-score, ≥ 0.246:
TGTTGGAA

PBM E-score, ≥ 0.102:
AGCAGATC

PBM E-score, ≥ 0.084:
AGAGATAA

PBM E-score, inactive:
ATCAGGGG -0.169, GGCACATA 0.0691, AGAAGGGC -0.126, GCGCAATA -0.0861, AGGTCGAG -0.107, GGAGGCAA -0.136, CAGCGAAC 0.0117, GTGTCCCA 0.0667, AGTTTTTC -0.00466, CGTGGACC -0.247, AACGCAGA -0.0244, ATCGGCTG -0.0593, CACACACG 0.13, GGGCTGAA -0.13, ATCGATTC 0.00148, CGTTGCCA 0.0237, CCATTCGA -0.012, CGTAGAGC -0.0605, GACGGTGA -0.0978, ATCGACGG -0.105, TCAACGCA 0.0352, GACCCTCC -0.196, AGAACTAA 0.0808, GGAACACC 0.141, GCAACCAA 0.0429, CTTCCCAC -0.106, TAAGACAA 0.229, GGCTCTAC -0.0932, ACGGGTTC -0.0477, ACCCTAAT 0.0435, AAGATGTA 0.298, CATAATTA 0.255, CTCCGAGC -0.124, CGGATCAA 0.0115, CGTCCACA -0.0222, CTCTCATC -0.0791, CCCGGATA -0.046, CCGCCGCA -0.22, GTCCCATA -0.0023, CAGGAGGG -0.19, GGCAAATA 0.0378, CATCGGGA 0.00133, ACACCGAC 0.0855, ATGATTTA 0.189, TAGTCTGA 0.0543, AGCGGAGC -0.242, GTCCGACA 0.226, GGGCGTTA -0.0736, CGGACACC 0.0686, GAGCGTGC -0.0861, ATATTTGC 0.0765, ATCTGTTC 0.149, CTCGTAGC -0.00503, GGATTCTA 0.0678, ATTGAGAC 0.0804, CACTTTAG -0.0591, GGATGTAA 0.299, GGGCAGAA -0.0763, AGACGCAA -0.0402, AAATAACG 0.11, GCAGAGGC -0.223, CGGGCGAG -0.163, ATCGCCTG -0.106, AGCGGGTA 0.00276, TGTGCAAA 0.118, CATATCTA 0.112, CCGAAATC -0.0715, CCCTTACG -0.183, CGTCTTAC -0.0383, GGCTCAAC -0.144, CATGCCCC -0.0767, AGTACAAT 0.292, GCATGCGC -0.104, AGACTTGA 0.0829, CGTCTCCC -0.193, ACTACAGC 0.149, AAATATAA 0.179, CCACGAGG -0.0809, CTGTCCAC -0.015, CACTAAAC 0.139, AAACGGCG -0.114, AGTGTAAT 0.225, ACAATTTG 0.13, GGTGGGGA -0.158, AAACTGTA 0.118, GCATAATA 0.169, AGGACGGA -0.127, AAGCAGGG -0.142, AAACCGAG -0.0159, AGCGTCGC -0.178, CCGGGCGA -0.201, ATGTGTTC 0.266, GCTGCAAC -0.0952, GCGCAAAC -0.0451, AGGGCAAA -0.0369, CCGGGCGC -0.324, CATGAAAG 0.0672, CATACGGA -0.0155, AGCGAGGA -0.186, TAGACGCA 0.013, ACTTAAAC 0.108, CAACTACC 0.0736, CGAGCGCA -0.0783, CACATGAG 0.0472, ATGCCCGC -0.123, GTTAGGAA 0.0363, TCCGGAAA -0.0812, TCGACGAA 0.0548, CGCACCCG -0.131, GCCAGCAC -0.105, CGTCTTGC -0.0898, GATTTAAA 0.01, AATAAGCT 0.0546, ACCACCAT 0.0399, GCCCTTTA -0.135, CAGCAATA 0.0248, CCCCAGTC -0.198, AAGCTAGG -0.137, GCTATAGC -0.191, GCCATTAC 0.0244, CAGGCCCC -0.293, CATTCCGG -0.102, CCAATATA 0.114, TTCACGAA 0.0673, ACCTATCG 0.0612, ACAAGGGG 0.177, TACTTTAA 0.115, AGGGCTTC -0.137, GGCCGATA -0.0908, ATCAAGAT 0.0803, ACACTAGA 0.0868, ATAGTCGA 0.0936, CGGATATC 0.0433, AGCATAGG -0.0834, ACAACTAT 0.274, CATCTTAC 0.16
